# Hit rate of the full screen: of about 390,000 compounds, about 4,700 (1.2%) were called active. Inconclusive means that the source gave no clear call. Such entries were picked first, then a sample of the others. Calls follow the shape of the dose curve; as a rule, active = well fitted inhibition curve with a large enough effect; inconclusive = small, poorly fitted or top-dose-only effect, or another doubt; inactive = no such curve, though single readings can be large or run the other way. Potencies beside an inconclusive call are fits to weak or partial responses and may not hold up.
# Target: DNA polymerase eta (Homo sapiens) (UniProt Q9Y253)
# Test: qHTS for Inhibitors of Polymerase Eta
# Conditions: recombinant Pol eta, fluorescent DNA replication assay; series mostly up to 114 µM; activity change, negative = inhibition: at the top concentration
# How it was run: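 Pol eta (10 nM) was preincubated with compounds for 15 min at room temperature, after which fluorescent replication substrate (50 nM final) was added to start the reaction. Fluorescence was read kinetically at 0 and 10 min.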
# % is scaled to controls: 0 for no effect and ±100 for the full control effect; potency is read from the fitted curve at half-maximal effect; tags tell the direction and shape of the fitted curve.
# UniProt Q9Y253, sequence (Q9Y253 whole entry, looked up): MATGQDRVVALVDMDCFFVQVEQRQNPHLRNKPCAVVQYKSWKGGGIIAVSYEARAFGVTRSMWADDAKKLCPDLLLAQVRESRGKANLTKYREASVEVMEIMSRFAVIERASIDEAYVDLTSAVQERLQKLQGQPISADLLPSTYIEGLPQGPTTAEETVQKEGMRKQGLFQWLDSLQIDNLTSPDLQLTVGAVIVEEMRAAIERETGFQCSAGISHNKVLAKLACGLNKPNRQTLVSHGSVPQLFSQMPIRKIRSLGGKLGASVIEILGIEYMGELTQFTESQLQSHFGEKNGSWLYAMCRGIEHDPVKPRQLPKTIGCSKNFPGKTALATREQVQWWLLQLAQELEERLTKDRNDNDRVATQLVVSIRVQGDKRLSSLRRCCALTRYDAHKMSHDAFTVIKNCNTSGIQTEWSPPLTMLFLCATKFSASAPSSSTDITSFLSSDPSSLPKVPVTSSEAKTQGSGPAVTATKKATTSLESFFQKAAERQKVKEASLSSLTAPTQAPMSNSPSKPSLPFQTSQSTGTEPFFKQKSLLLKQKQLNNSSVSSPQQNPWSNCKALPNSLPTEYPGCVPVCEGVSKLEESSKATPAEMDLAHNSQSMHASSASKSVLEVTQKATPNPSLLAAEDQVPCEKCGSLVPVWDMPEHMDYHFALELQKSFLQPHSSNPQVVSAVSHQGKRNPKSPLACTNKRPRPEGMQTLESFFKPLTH
Compound,"activity change, negative = inhibition",Potency
COc1cc(NC(=O)Cn2nc(C(F)(F)F)c3c2CCCC3)c(OC)cc1Cl,inactive: -20.9%,
CCSc1nc(O)cc(=O)[nH]1,,"inconclusive: 2.82 µM [inhibitor, partial curve, poor fit]"
COc1ccc(NC(=O)c2cc(-c3ccco3)nc3ccccc23)cc1S(=O)(=O)N1CCOCC1,,active: 15.8 µM
O=C(NCc1ccco1)c1ccc(Cl)cc1[N+](=O)[O-],,"inconclusive: 39.8 µM [inhibitor, single point]"
Cc1ccc(S(=O)(=O)/C(C#N)=C/c2c(N3CCN(C)CC3)nc3ccccn3c2=O)cc1,,"inconclusive: 79.4 µM [inhibitor, partial curve, poor fit]"
CCOc1ccc(C=NNc2ccc(S(=O)(=O)Nc3ccccc3C(=O)O)cc2[N+](=O)[O-])cc1OC,,"inconclusive: 7.08 µM [inhibitor, full curve, poor fit]"
CC(C)(C)C(=O)Nc1ccc(C(=O)Nc2cccc(Oc3ccc(C(=O)O)c(C(=O)O)c3)c2)cc1,,"inconclusive: 56.2 µM [inhibitor, partial curve, poor fit]"
Cc1cc(=O)oc2c3c(ccc12)OC/C3=N/N,,"inconclusive: 50.1 µM [inhibitor, partial curve]"
COc1c(C(O)CC(C)C)ccc2c1C(=O)OCc1cc(C)cc(O)c1O2 (stereo unspecified),,"inconclusive: 50.1 µM [inhibitor, partial curve, poor fit]"
CC(C)c1ccc(S(=O)(=O)/N=C2/C=C(Sc3ncn[nH]3)C(=O)c3ccccc32)cc1,,active: 12.6 µM
COc1cccc(/C=N/Nc2ncnc3c2[nH]c2ccc(C)cc23)c1OC,,"inconclusive: 7.94 µM [inhibitor, full curve]"
COc1cc(CN(CC2CCCO2)C(=O)c2ccc(F)cc2)cc(OC)c1OC (stereo unspecified),inactive: -14.1%,
CCc1cc(/C(Cc2csc(C)n2)=N/O)c(O)cc1O,,"inconclusive: 79.4 µM [inhibitor, partial curve, poor fit]"
CCOC(=O)NNc1ccc2nonc2c1[N+](=O)[O-],,active: 10 µM
Cc1nn(C)c(C(=O)Nc2ccn(C34CC5CC(CC(C5)C3)C4)n2)c1[N+](=O)[O-],,"inconclusive: 79.4 µM [inhibitor, partial curve, poor fit]"
Cc1[nH]c2ccccc2c1/C=N/Nc1cccc(C(=O)O)c1,,active: 56.2 µM
Cc1nn(-c2ccccn2)c2c1-c1nc(N)ncc1CC2,inactive: -0.799%,
CC1CCN(C2=C(NS(=O)(=O)c3ccc(Br)cc3)C(=O)c3ccccc3C2=O)CC1,inactive: -11.8%,
Cc1ccc(NC(=O)Nc2nnc(N3CCCC3)s2)c(C)c1,inactive: -8.38%,
O=C(Nc1ccc(Cl)cc1)Nc1nnc(-c2ccncc2)s1,,"inconclusive: 7.94 µM [inhibitor, full curve]"
CCN(CCCCN1C(=O)c2ccccc2C1=O)c1ccc2c(c1)C(=O)N(C)C2=O,,active: 50.1 µM
CCc1cc(=O)oc2cc(OCc3ccc(C(=O)O)o3)ccc12,,"inconclusive: 31.6 µM [inhibitor, partial curve]"

Compound,"activity change, negative = inhibition",Potency
C[C@H](CO)N1C[C@H](C)[C@@H](CN(C)S(=O)(=O)c2cn(C)cn2)Oc2ccc(NC(=O)Nc3ccccc3)cc2C1=O,,"inconclusive: 89.1 µM [inhibitor, single point]"
CCn1ccc2cc(S(=O)(=O)N3CCCN(C(=O)NCC(C)C)CC3)ccc21,inactive: -15%,
COC(=O)C1=C(C)N(Cc2ccco2)C(=O)C1,,active: 12.6 µM
O=C(Nc1ccc(N2CCN(C(=O)c3ccco3)CC2)c(Cl)c1)c1cc2ccccc2o1,,"inconclusive: 22.4 µM [inhibitor, partial curve, poor fit]"
Cc1c(C(=O)N2CC3(CC(c4cccc(NC(=O)CC(c5ccccc5)c5ccccc5)c4)=NO3)C[C@@H]2C(N)=O)cc([N+](=O)[O-])cc1[N+](=O)[O-] (stereo partly specified),inactive: -12.7%,
COc1ccc(NC(=O)C2CCN(S(=O)(=O)c3ccc4c(c3)CCCC(=O)N4)CC2)cc1Cl,inactive: -16.6%,
Cc1oc(C)c2c(=O)cc(-c3ccc4c(c3)OCO4)cc(OC(=O)c3ccccc3Br)c12,,"inconclusive: 89.1 µM [inhibitor, partial curve, poor fit]"
COc1cc2ccccc2cc1C(=O)NC(=S)Nc1cccc(C(=O)O)c1,,active: 44.7 µM
O=C(Nc1ccnc(=O)[nH]1)c1sc2ccccc2c1Cl,,"inconclusive: 17.8 µM [inhibitor, full curve]"
O=C(CN1C(=O)C2CCCCN2c2ccc(C(=O)N3CCCC3)cc21)NCc1cccc(Cl)c1 (stereo unspecified),,"inconclusive: 79.4 µM [inhibitor, partial curve]"
COC(=O)c1sccc1NC(=O)Nc1ccc(F)cc1,inactive: -14.6%,
Cc1cccc(N(Cc2ccccc2)C(=O)c2cc(S(=O)(=O)N3CCOCC3)ccc2Cl)c1,,"inconclusive: 79.4 µM [inhibitor, partial curve, poor fit]"
COc1ccccc1C(=O)NNC(=O)CCCN1C(=O)/C(=C/c2cccs2)SC1=S,,"inconclusive: 31.6 µM [inhibitor, partial curve, poor fit]"
COc1ccc(S(=O)(=O)N2CCC(C(=O)N[C@@H](C)C(=O)NCc3cccnc3)CC2)cc1,inactive: -12.4%,
O=C(CCCCCNC(=O)N1CCn2c1nc1ccccc12)NCc1ccccc1,inactive: -1.82%,
Cc1ccc(C)c(NC(=O)CSc2c3c(nc4ccc(Cl)cc24)CCCC3)c1,,"inconclusive: 79.4 µM [inhibitor, partial curve, poor fit]"
COc1ccc(/C=C(\C#N)c2nc(-c3cc4c(ccc5ccccc54)oc3=O)cs2)cc1O,,"inconclusive: 100 µM [inhibitor, single point]"
CCn1c2ccccc2c2cc(/C=N/n3c(-c4cc(C)[nH]n4)n[nH]c3=S)ccc21,,"inconclusive: 44.7 µM [inhibitor, partial curve]"
Cc1cc(C)c2c(c1)C(=O)/C(=C/c1ccc(C(=O)O)cc1)CC2,,"inconclusive: 79.4 µM [inhibitor, partial curve]"
O=C(O)[C@H]1CCC(=O)N1Cc1ccco1,,"inconclusive: 17.8 µM [inhibitor, partial curve]"
Cc1cc(=O)oc2cc(OCC(=O)OCC(=O)N3CCc4ccccc43)ccc12,,"inconclusive: 0.251 µM [inhibitor, full curve, poor fit]"
CCc1nnc(NC(=O)CSc2ccc(-c3ccco3)nn2)s1,inactive: -20.4%,

Compound,"activity change, negative = inhibition",Potency
O=C(Nc1ccccc1)Nc1ccc2ccccc2c1,,"inconclusive: 89.1 µM [inhibitor, partial curve, poor fit]"
Cc1cc(C)cc(NS(=O)(=O)c2ccc3[nH]cc(C(=O)N(C)Cc4ccccc4)c(=O)c3c2)c1,inactive: -8.09%,
CC(C)(C)c1ccc(C(=O)Nc2ccc(C=C(C#N)C#N)cc2)cc1,,"inconclusive: 20 µM [inhibitor, partial curve, poor fit]"
CCCCCCCCCCC/C=C\C(C)(C)/C=C\CCCC(=O)O,,active: 28.2 µM
O=C(O)c1ccccc1NS(=O)(=O)c1ccc(NN=Cc2ccccc2F)c([N+](=O)[O-])c1,,active: 28.2 µM
O=C(CCSc1ccccc1)NCCSCc1ccco1,,"inconclusive: 35.5 µM [inhibitor, single point]"
CCOC(=O)CNC(=O)CSc1nc2nc(C)c(Br)cc2[nH]1,,"inconclusive: 79.4 µM [inhibitor, partial curve, poor fit]"
Cc1c(C(=O)N2CCN(C3CCS(=O)(=O)C3)CC2)oc2c(F)cccc12 (stereo unspecified),,"inconclusive: 79.4 µM [inhibitor, partial curve]"
Cc1sc2nc(CSC(C)C(=O)Nc3ccc(C#N)cc3)[nH]c(=O)c2c1C (stereo unspecified),,"inconclusive: 35.5 µM [inhibitor, partial curve, poor fit]"
COC(=O)c1cc(C(=O)c2ccc(C(C)(C)C)cc2)c[nH]1,,"inconclusive: 79.4 µM [inhibitor, partial curve, poor fit]"
CN1C(=O)c2cccc3c(Cl)ccc(c23)C1=O,inactive: 4.6%,
COc1ccc(NC(=O)Cn2nnc(-c3ccccc3NC(=O)c3ccco3)n2)cc1,,"inconclusive: 31.6 µM [inhibitor, single point]"
O=C(CCC(=O)c1ccc(F)cc1)Nc1cccc(S(=O)(=O)Nc2cccc(Cl)c2)c1,,"inconclusive: 89.1 µM [inhibitor, partial curve, poor fit]"
COc1ccccc1C(=O)Nc1cc2ccccc2oc1=O,,"inconclusive: 4.47 µM [inhibitor, full curve]"
COc1c(C)cc(C(=O)C2CCCN(C(=O)c3cccc(-n4cccn4)c3)C2)cc1C (stereo unspecified),,"inconclusive: 100 µM [inhibitor, partial curve, poor fit]"
COCCCNC(=O)/C(C#N)=C/c1ccc(OCC(=O)O)c(OC)c1,,active: 2.51 µM
C/C=C/c1ccccc1OCc1ccc(C(=O)OC)o1,,"inconclusive: 50.1 µM [inhibitor, partial curve, poor fit]"
CCN1c2ccccc2-c2nc(SCC(=O)NCc3ccc(C)cc3)ncc2S1(=O)=O,inactive: -5.08%,
CCOc1ccc(N=Nc2cc(C(C)C)ccc2O)cc1,,"inconclusive: 79.4 µM [inhibitor, partial curve, poor fit]"
O=C(NOC(=O)c1ccccc1F)c1ccc(OC(F)F)cc1,inactive: 1.05%,
CCN1C(C(=O)c2ccccc2)=C(Nc2ccccc2C)c2ccccc2S1(=O)=O,,"inconclusive: 79.4 µM [inhibitor, partial curve, poor fit]"
O=C(O)c1cc(-c2ccc3c(c2)OCO3)nc2ccc(Cl)cc12,,"inconclusive: 22.4 µM [inhibitor, full curve]"

# Reference: PubChem BioAssay AID588591 (National Center for Advancing Translational Sciences (NCATS), 2011)
